Laboratory results reported in article PMC6919601, “Identification of Plasmodium dipeptidyl aminopeptidase allosteric inhibitors by high throughput screening” (PLoS ONE, 2019).
About 230 (0.21%) of roughly 110,000 compounds showed an effect of 50% or more. The list shows a part of the results.

Target: DPAP1 (Plasmodium falciparum, UniProt Q8IIJ9)
Test: primary screen, percent inhibition; read by cleavage of a fluorogenic dipeptide substrate; higher = more effect of the substance
Set-up: species or system P. falciparum D10 trophozoite lysates; single well
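Further: 30 min substrate incubation versus DMSO and 10 µM JCP410 controls.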

DPAP1, sequence (Q8IIJ9 whole entry, looked up): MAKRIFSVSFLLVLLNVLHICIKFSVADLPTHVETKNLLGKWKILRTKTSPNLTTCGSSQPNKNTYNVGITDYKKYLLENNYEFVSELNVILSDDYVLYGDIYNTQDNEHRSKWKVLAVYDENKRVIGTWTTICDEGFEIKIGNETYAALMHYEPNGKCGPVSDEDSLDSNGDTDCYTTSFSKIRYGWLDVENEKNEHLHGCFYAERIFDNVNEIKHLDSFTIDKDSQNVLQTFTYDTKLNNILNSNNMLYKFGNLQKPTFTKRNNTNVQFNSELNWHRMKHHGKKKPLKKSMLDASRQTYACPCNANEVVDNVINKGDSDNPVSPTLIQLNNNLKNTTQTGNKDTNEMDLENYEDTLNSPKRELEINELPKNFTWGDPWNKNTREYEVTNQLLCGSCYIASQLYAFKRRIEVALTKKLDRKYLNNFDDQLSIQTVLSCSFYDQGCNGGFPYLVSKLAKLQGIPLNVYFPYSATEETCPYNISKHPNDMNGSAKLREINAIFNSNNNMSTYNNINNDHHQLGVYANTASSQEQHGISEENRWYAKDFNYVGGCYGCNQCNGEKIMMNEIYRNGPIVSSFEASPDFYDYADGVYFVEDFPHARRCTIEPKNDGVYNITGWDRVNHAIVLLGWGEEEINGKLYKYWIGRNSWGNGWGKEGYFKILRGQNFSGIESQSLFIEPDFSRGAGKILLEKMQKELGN

Compound | % Inhibition @ 10 uM
CCOC(=O)c1sc(NC(=O)c2cc(-c3cccc(Cl)c3)on2)c(C(=O)OCC)c1C | -3.12%
Cc1ccc2oc3c(c(=O)c2c1)C(c1cccc(O)c1)N(Cc1ccc2c(c1)OCO2)C3=O (centres unmarked) | -6.94%
COc1cc(NC(=O)/C(=C/c2ccc(C)o2)NC(=O)c2ccccc2)cc(OC)c1 | 0.777%
Cc1nc(C)c2c(=O)n(-c3ccccc3)c(=O)[nH]c2n1 | -3.66%
COC(=O)c1ccccc1NC(=O)CCC(=O)O | 0.774%
c1cc(CNC2CCCCC2)ccn1 | 1.84%
FC(F)(F)c1ccc(-c2nnc3ccc4ccccc4n23)cc1 | 2.05%
Cc1ccc2cc3cc(C(=O)N(C)Cc4ccccc4)sc3nc2c1 | 0.402%
O=C(NC1CCCCCCC1)NC1CCCCC1 | -5.92%
O=C(O)C1CCCN(C(=O)c2ccc(-n3ccc4ccccc43)s2)C1 (centres unmarked) | 3.24%
CC(C)c1ccccc1OCC(=O)Nc1nonc1NC(=O)COc1ccccc1C(C)C | -1.82%
CC(=O)c1c(O)cc(C)o/c1=N\c1ccc2c(c1)OCO2 | -4.41%
COc1ccc(-c2cc(C(=O)NCc3ccncc3)c3ccccc3n2)c(OC)c1 | -2.32%
CCCCCCCCC1CC1(C(=O)O)C(=O)O (centres unmarked) | -2.51%
Cc1nn(CC(=O)NCCC(C)C)c(=O)c2cc3cc(F)ccc3n12 | -0.192%
CCC1(C)Cc2c(sc3nnn(CC(=O)c4ccc(Cl)cc4)c(=O)c23)CO1 (centres unmarked) | 1.32%
O=C(Cn1ccc2ccccc2c1=O)Nc1nc2ccccc2s1 | -4.23%
CN1CCC(NCc2cccc(Cl)c2)CC1 | 0.472%
Cc1ccc(N/C=C2/C(=O)NC(=O)N(c3ccccc3)C2=O)cc1CN1C(=O)c2ccccc2C1=O | 4%
O=C(C1CC1)N1CCN(c2cccc(Cl)c2)CC1 | 1.88%
CC(C)N(Cc1nc(-c2ccccc2)no1)C(=O)CC(C)(C)C | -6.89%
CC(C)(C)c1ccc(S(=O)(=O)Nc2cccc(C(F)(F)F)c2)cc1 | -2.03%
CCCSc1nnc2c(n1)OC(c1cccc(C)n1)Nc1ccccc1-2 (centres unmarked) | 4.88%
Cc1ccc2c(c1)-c1c(cnn1CC(=O)Nc1cccnc1Cl)CO2 | -4.34%
CC(C)(C)C1CC(O)C(C(C)(C)C)CC1=O (centres unmarked) | 3.92%
NC(=O)c1ccc(-n2nnnc2SCc2ccc(C(=O)O)cc2)cc1 | 3.05%

Compound | % Inhibition @ 10 uM
Cc1cc(NS(=O)(=O)c2ccc(NC(=O)c3sc4ccccc4c3Cl)cc2)no1 | -8.97%
OC(C#CCN1CCOCC1)c1ccccc1 (centres unmarked) | -2%
O=C(COCc1cc(-c2ccc(F)cc2)on1)NCc1ccc2c(c1)OCO2 | -6.43%
Fc1ccc(CSc2nnnn2-c2ccc3c(c2)OCO3)cc1 | 4.66%
COc1cc(/C=C2/NC(=O)N(CC(=O)Nc3cccc(C)c3)C2=O)ccc1OC(C)C | 5.03%
CCOC(=O)C1=C(CN2CCN(C(=O)OCC)CC2)NC(=O)NC1c1cccs1 (centres unmarked) | -3.36%
CC1=NNC(=O)C1C(c1ccc(Br)cc1)C(C#N)C#N (centres unmarked) | -2.51%
COc1ccccc1CCNCc1c(C(=O)O)c(C)n(Cc2cccc(Cl)c2)c1C | -0.23%
N#CC1=C(N)Oc2cc(O)ccc2C1c1ccc(C(F)(F)F)cc1 (centres unmarked) | -2.81%
c1ccc2c(c1)nc(-c1cscn1)n2CCCCc1nn[nH]n1 | 1.72%
CC(CCc1ccco1)N(C)S(=O)(=O)c1ccc(-c2cc(C(F)(F)F)no2)s1 (centres unmarked) | -1.77%
c1ccc(-c2cc(-c3ccccc3)nc(-n3cccn3)n2)cc1 | 0.708%
COCCCn1c(-c2ccc(Br)cc2)cn2c3c(=O)n(C)c(=O)n(C)c3nc12 | 4.05%
OC1CCN(Cc2ccc(Br)cc2)CC1 | 1.28%
Cc1cccc(C2=N/C(=C\c3sccc3C)C(=O)O2)c1 | 2.92%
CCOc1ccc2nc(N3CCC(C(=O)N4CCC(Cc5ccccc5)CC4)CC3)sc2c1 | -1.58%
CCn1cc(Br)c(C(=O)Nc2c(C)cc(C)cc2C)n1 | -4.21%
COc1ccccc1CNC(=O)CCCn1nc(C)n2c(cc3sccc32)c1=O | 9.33%
CCOc1ccc(NC(=O)C2=C(C)NC(=O)NC2c2cccc(OC)c2)cc1 (centres unmarked) | 3.44%
Cc1ccc(C(=O)N(Cc2ccccc2)C(C)C)cc1 | 0.526%
COc1cccc(-c2n[nH]c(O)n2)c1 | 2.46%
CCc1ccc(/C=C2/C(=N)N3C(=NC2=O)SN=C3S(C)(=O)=O)cc1 | -3.39%
Clc1ccc(-c2noc(COc3cccc4ccccc34)n2)cc1 | -1.6%
CC1CC(NC(=O)C2C3CCC(C3)C2C(=O)O)CC(C)(C)C1 (centres unmarked) | 2.76%
CCCCOc1ccc(C(=O)NCc2cn3c(C)csc3n2)cc1 | -0.72%
N#Cc1ccc(NC(=O)c2ccc(-c3ccccc3)cc2)cc1 | -4.21%

Compound | % Inhibition @ 10 uM
COc1ccc(C2=Cc3cc(C)c(C#N)c(=O)n3C2)cc1 | -4.35%
Fc1ccc(Cn2nnc3ccccc32)cc1 | -6.78%
CC(Cc1ccccc1F)N1CCN(C/C=C/c2ccccc2)CC1 (centres unmarked) | -7.17%
CCOc1ccc(-c2cnc(NCc3c(F)cccc3Cl)n2C)cc1 | -4.78%
O=S(=O)(NC(c1ccccc1)c1ccccc1)c1ccc(Cl)cc1 | -0.856%
CCN1C(=O)CC(c2ccc(OC(C)C)cc2)C1=O (centres unmarked) | 5.61%
O=C(CCC(=O)n1ncc2ccc(Cl)cc21)NCc1ccccc1Cl | 0.596%
CCCC(C(=O)NCc1ccccc1Cl)N1Cc2ccccc2C1=O (centres unmarked) | 1.34%
CC(NC(=O)/C=C/c1ccccc1)c1ccccc1 (centres unmarked) | 3.8%
O=C(Nc1ccc(-c2ccc([N+](=O)[O-])cc2)cc1)c1ccco1 | 5.29%
CC1=C(C(=O)OCc2ccccc2)C(c2ccc(F)cc2)C(C#N)=C(N)O1 (centres unmarked) | 2.54%
COC(=O)C1=C(C(=O)OC)C2(OC1c1ccccc1C)C(=O)c1ccccc1C2=O (centres unmarked) | -5.51%
CCC1CCCCN1C(=O)Cn1c(C(=O)OC)cc2sccc21 (centres unmarked) | -6.59%
Cc1nc2nc(SCC(=O)NCc3ccc(F)cc3)nn2c(C)c1Cc1ccccc1 | 0.121%
COc1ccc(-c2coc3cc(OC)ccc3c2=O)c(O)c1 | 62.1%
CCN1C/C(=C\c2ccsc2)C(=O)/C(=C/c2ccsc2)C1 | 0.189%
CCOC(=O)N1CCC(/N=c2\c(O)c(O)\c2=N/C2CCN(Cc3ccccc3)CC2)CC1 | -5.05%
COc1ccc(S(=O)(=O)NCC(=O)O)cc1C(=O)NC1CCCCC1 | -1.98%
CC1=C(C(=O)Nc2ccccc2)C(c2ccncc2)n2ncnc2N1 (centres unmarked) | -2.88%
O=C(O)c1ccc(S(=O)(=O)NC2CCCCCC2)cc1 | -4.29%
COc1cc(C(O)c2nc3ccccc3n2C)cc(OC)c1OC (centres unmarked) | 3.06%
O=C(Nc1ccccc1)Nc1ccccc1Br | 2.9%
Cn1c(CNc2ccc(F)cc2)nc2ccccc21 | -6.88%
COc1cc(OC)cc(C(=O)N(CCCN(C)C)c2nc3c(F)cccc3s2)c1 | 7.44%
CC(C)C[C@H](NC(=O)c1ccccc1)C(=O)NC(C#N)c1ccco1 (some centres unmarked) | 0.174%
CCCCOc1ccc(CONC(=O)COc2ccc(Cl)cc2Cl)cc1 | 0.685%

Compound | % Inhibition @ 10 uM
CC(=O)Nc1c(C#N)c(C)n(-c2ccccc2)c1C(=O)c1ccccc1 | 3.53%
CN(C)CCCN(C(=O)COc1ccccc1)c1nc2cc3c(cc2s1)OCCO3 | -2.41%
Cc1cccc(C)c1OCC(=O)Nc1ccc(S(N)(=O)=O)cc1 | -0.473%
O=C(Nc1ccc(S(=O)(=O)N2CCOCC2)cc1)c1ccccc1 | 3.24%
O=C(NCC1CCCO1)C1CCCN(S(=O)(=O)N2CCC3(CC2)OCCO3)C1 (centres unmarked) | -1.67%
Cc1nc2c(C(=O)N3CCC4(CC3)OCCO4)cnn2c(C)c1Cc1cccc(Cl)c1 | 2.9%
CC(=O)c1cc(C#N)c(SCC(=O)Nc2cccc(C)c2)nc1C | 2.36%
CCc1ccc(-c2nc(CS(=O)CC(=O)NCCN3CCCCCC3)c(C)o2)cc1 (centres unmarked) | -0.971%
Cc1c(C)n(Cc2ccccc2)c2ccc(C(=O)NCCN3CCN(C)CC3)cc12 | 2.96%
Cc1ccc(CN(C(=O)c2nc(SC(C)C)ncc2Cl)C2CCS(=O)(=O)C2)cc1 (centres unmarked) | -2.71%
N#CCNC(=O)C(CCc1cccc(Cl)c1F)NC(=O)OCc1ccccc1 (centres unmarked) | -0.207%
Cc1ccc(Cn2c(=O)n(CCC(=O)NCc3ccco3)c(=O)c3sccc32)cc1 | -2.47%
CSc1nc(O)c2cnn(-c3ccccc3)c2n1 | -1.54%
CCCCCOC(=O)c1c2c(n3ccc(-c4ccncc4)cc13)C(=O)c1ccccc1C2=O | -1.18%
O=C(CCC(=O)OCCc1ccccc1)Nc1cccc([N+](=O)[O-])c1 | -2.62%
Cc1nn(C)c(C)c1N1C(=O)c2cccc3cccc(c23)C1=O | -8.33%
CC(C)(C)c1ccccc1OCC(=O)Nc1ccc(S(=O)(=O)Nc2ccccn2)cc1 | -3.18%
O=C(C(c1ccccc1)c1ccccc1)N1CCN(S(=O)(=O)c2ccccc2)CC1 | 4.32%
CC1CCC(N2CCN(c3ncccn3)CC2)C1 (centres unmarked) | 3.15%
CNC(=O)C(Cc1ccccc1)N1C(=O)C2C3C=CC(C3)C2C1=O (centres unmarked) | 5.81%
CCOc1ccccc1C(=O)Nc1nc2ccc(Cl)cc2s1 | -5.48%
CC1=C(CCN2CCN(C)CC2)C(C)(C)CCC1 | 3.48%
Cc1ccc(O)c(-c2[nH]nc3c2C(c2cccc(O)c2)N(CCO)C3=O)c1 (centres unmarked) | -4.75%
